# Experimental data reported in the BET-seq Pho4 binding data (Le et al. 2018).
# This is one part of the list. The energies were worked out here from pooled read counts, against the library average; single values are noisy.
# Target: T1, Pho4 (S. cerevisiae) (UniProt P07270)
# T1 sequence: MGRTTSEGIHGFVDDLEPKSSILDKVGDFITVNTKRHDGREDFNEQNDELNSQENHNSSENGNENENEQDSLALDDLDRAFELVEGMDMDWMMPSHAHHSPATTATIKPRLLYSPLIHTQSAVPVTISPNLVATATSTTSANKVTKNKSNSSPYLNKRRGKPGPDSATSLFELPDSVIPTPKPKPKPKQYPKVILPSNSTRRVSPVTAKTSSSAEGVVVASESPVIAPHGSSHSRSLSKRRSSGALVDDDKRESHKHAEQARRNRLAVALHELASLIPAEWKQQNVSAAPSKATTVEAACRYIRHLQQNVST
# Test: relative binding free energy (BET-seq); higher = weaker binding
# Conditions: reference: library average
row,Sequence,relative binding free energy
1,ACTGTCACGTGCTTGG,0.1 kcal/mol
2,GACTTCACGTGGAGTT,0.44 kcal/mol
3,GTGTTCACGTGCAGGG,0.33 kcal/mol
4,TGTGTCACGTGATTAC,0.14 kcal/mol
5,TTCGACACGTGGGGGT,-0.13 kcal/mol
6,GGGATCACGTGAGTAG,0.5 kcal/mol
7,ATTGTCACGTGGGCGA,-0.13 kcal/mol
8,ATTAACACGTGGTGGG,-0.12 kcal/mol
9,GTGTGCACGTGTGAGG,0.07 kcal/mol
10,TTTTTCACGTGTGTCT,0.35 kcal/mol
11,GTTAACACGTGGTGCT,0.06 kcal/mol
12,GAGTCCACGTGTTGTT,0.12 kcal/mol
13,CGGTCCACGTGTGGTG,0.04 kcal/mol
14,TTGCACACGTGCGGGT,0.01 kcal/mol
15,TTTTTCACGTGGAGGT,0.33 kcal/mol
16,TGTGTCACGTGAGTTA,0.34 kcal/mol
17,ATTGCCACGTGGTGGT,-0.11 kcal/mol
18,ACTTTCACGTGTGATG,0.42 kcal/mol
19,TTAACCACGTGGGTGG,-0.23 kcal/mol
20,TAGTTCACGTGCAGTA,0.18 kcal/mol

row,Sequence,relative binding free energy
1,GTTTGCACGTGGTAGC,0.16 kcal/mol
2,GTGGTCACGTGGTGGC,0.14 kcal/mol
3,GGGCTCACGTGCCGTG,0.34 kcal/mol
4,GTTAGCACGTGGTAAT,-0.09 kcal/mol
5,GGGGTCACGTGTGGAC,0.06 kcal/mol
6,AGAGTCACGTGAGGAG,0.32 kcal/mol
7,TAAGGCACGTGTAGGT,-0.04 kcal/mol
8,ATAGGCACGTGTGTGG,-0.02 kcal/mol
9,GGTGACACGTGGGATT,0 kcal/mol
10,AATGACACGTGGTACG,0.04 kcal/mol
11,GTGGACACGTGGCTCT,0.04 kcal/mol
12,TGCCTCACGTGTGTGA,0.18 kcal/mol
13,GGTTGCACGTGTAGAT,0.11 kcal/mol
14,TGTCACACGTGAGTGT,0.2 kcal/mol
15,TGCATCACGTGCGTTG,0.23 kcal/mol
16,CACTTCACGTGTGTGT,0.2 kcal/mol
17,TGAAACACGTGTGGAG,0.11 kcal/mol
18,GAGGGCACGTGTAAAG,-0.06 kcal/mol
19,AGGTGCACGTGCATGG,-0.14 kcal/mol
20,TAGGACACGTGGGAAC,0.24 kcal/mol

row,Sequence,relative binding free energy
1,CGGTCCACGTGGTTGG,-0.04 kcal/mol
2,CAAGTCACGTGGTGGG,0.09 kcal/mol
3,GATATCACGTGAGGAT,0.44 kcal/mol
4,TTTGGCACGTGGTCTG,-0.23 kcal/mol
5,GGCTTCACGTGTTGAT,0.19 kcal/mol
6,TGCGGCACGTGGAAGT,0.11 kcal/mol
7,TTGGCCACGTGTTGAA,0.05 kcal/mol
8,TGTGACACGTGCGATG,-0.17 kcal/mol
9,TAGTACACGTGCGGTT,-0.04 kcal/mol
10,CGTGTCACGTGCGGGT,-0.18 kcal/mol
11,GGGGGCACGTGTCGAA,-0.03 kcal/mol
12,GGTGGCACGTGACGGA,0.09 kcal/mol
13,TATTACACGTGCAGGG,0.09 kcal/mol
14,TGTTACACGTGTCGTG,0.13 kcal/mol
15,GTCTTCACGTGTCGTT,0.25 kcal/mol
16,CGTTACACGTGGTGTA,-0.13 kcal/mol
17,ATATGCACGTGCATGG,-0.11 kcal/mol
18,TTTCTCACGTGAAGGG,0.38 kcal/mol
